The supplement of paper PMC8728848
The other results are listed elsewhere or left out.

Experiments:
Assay in all cases: glycan array binding signal (z-score within array); higher = stronger binding
Conditions in all cases: glycan notation: IUPAC condensed, linker removed
[1] = biological target: Neu5Ac(a2-3)Gal(b1-4)GlcNAc(b1-6)[Gal(b1-3)]GalNAc
Procedure, shortened: (§1)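 Glycan array data came from 3228 arrays in the Consortium for Functional Glycomics database, and only arrays with an available protein sequence were kept. Glycan names were put into IUPAC-condensed notation, and columns mapping to the same glycan were averaged. The binding signal is a within-array Z-score, averaged across arrays of one protein sequence run at different concentrations or buffers and across linkers. A negative Z-score can be read as non-binding.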

[2] = biological target: Neu5Ac(a2-3)Gal(b1-4)GlcNAc(b1-6)[Neu5Ac(a2-3)Gal(b1-3)]GalNAc
Procedure, shortened: as §1

[3] = biological target: Neu5Ac(a2-3)Gal(b1-4)GlcNAc6S
Procedure, shortened: as §1

[4] = biological target: Neu5Ac(a2-3)Gal(b1-4)[Fuc(a1-3)]GlcNAc
Procedure, shortened: as §1

[5] = biological target: Neu5Ac(a2-3)Gal(b1-4)[Fuc(a1-3)]GlcNAc(b1-3)Gal
Procedure, shortened: as §1

[6] = biological target: Neu5Ac(a2-3)Gal(b1-4)[Fuc(a1-3)]GlcNAc(b1-3)Gal(b1-4)GlcNAc
Procedure, shortened: as §1

[7] = biological target: Neu5Ac(a2-3)Gal(b1-4)[Fuc(a1-3)]GlcNAc(b1-3)Gal(b1-4)[Fuc(a1-3)]GlcNAc(b1-3)Gal(b1-4)[Fuc(a1-3)]GlcNAc
Procedure, shortened: as §1

[8] = biological target: Neu5Ac(a2-3)Gal(b1-4)[Fuc(a1-3)]GlcNAc(b1-6)[Gal(b1-3)]GalNAc
Procedure, shortened: as §1

[9] = biological target: Neu5Ac(a2-3)Gal(b1-4)[Fuc(a1-3)]GlcNAc6S
Procedure, shortened: as §1

[10] = biological target: Neu5Ac(a2-3)Gal6S(b1-4)GlcNAc
Procedure, shortened: as §1

[11] = biological target: Neu5Ac(a2-3)Gal6S(b1-4)[Fuc(a1-3)]GlcNAc
Procedure, shortened: as §1

Neu5Ac(a2-3)GalNAc = biological target: Neu5Ac(a2-3)GalNAc
Procedure, shortened: as §1

[12] = biological target: Neu5Ac(a2-3)GalNAc(b1-4)GlcNAc
Procedure, shortened: as §1

[13] = biological target: Neu5Ac(a2-3)[GalNAc(b1-4)]Gal(b1-4)Glc
Procedure, shortened: as §1

[14] = biological target: Neu5Ac(a2-3)[GalNAc(b1-4)]Gal(b1-4)GlcNAc
Procedure, shortened: as §1

[15] = biological target: Neu5Ac(a2-3)[Neu5Ac(a2-6)]GalNAc
Procedure, shortened: as §1

Neu5Ac(a2-6)Gal = biological target: Neu5Ac(a2-6)Gal
Procedure, shortened: as §1

Neu5Ac(a2-6)Gal(b1-4)Glc = biological target: Neu5Ac(a2-6)Gal(b1-4)Glc
Procedure, shortened: as §1

[16] = biological target: Neu5Ac(a2-6)Gal(b1-4)GlcNAc
Procedure, shortened: as §1

[17] = biological target: Neu5Ac(a2-6)Gal(b1-4)GlcNAc(b1-2)Man(a1-3)[Gal(b1-4)GlcNAc(b1-2)Man(a1-6)]Man(b1-4)GlcNAc(b1-4)GlcNAc
Procedure, shortened: as §1

[18] = biological target: Neu5Ac(a2-6)Gal(b1-4)GlcNAc(b1-2)Man(a1-3)[GlcNAc(b1-2)Man(a1-6)]Man(b1-4)GlcNAc(b1-4)GlcNAc
Procedure, shortened: as §1

[19] = biological target: Neu5Ac(a2-6)Gal(b1-4)GlcNAc(b1-2)Man(a1-3)[GlcNAc(b1-2)Man(b1-4)GlcNAc(b1-2)Man(a1-6)]Man(b1-4)GlcNAc(b1-4)GlcNAc
Procedure, shortened: as §1

[20] = biological target: Neu5Ac(a2-6)Gal(b1-4)GlcNAc(b1-2)Man(a1-3)[Neu5Ac(a2-6)Gal(b1-4)GlcNAc(b1-2)Man(a1-6)]Man(b1-4)GlcNAc(b1-4)GlcNAc
Procedure, shortened: as §1

[21] = biological target: Neu5Ac(a2-6)Gal(b1-4)GlcNAc(b1-2)Man(a1-6)[Gal(b1-4)GlcNAc(b1-2)Man(a1-3)]Man(b1-4)GlcNAc(b1-4)GlcNAc
Procedure, shortened: as §1

[22] = biological target: Neu5Ac(a2-6)Gal(b1-4)GlcNAc(b1-2)Man(a1-6)[GlcNAc(b1-2)Man(a1-3)]Man(b1-4)GlcNAc(b1-4)GlcNAc
Procedure, shortened: as §1

[23] = biological target: Neu5Ac(a2-6)Gal(b1-4)GlcNAc(b1-3)Gal(b1-4)GlcNAc
Procedure, shortened: as §1

[24] = biological target: Neu5Ac(a2-6)Gal(b1-4)GlcNAc(b1-3)Gal(b1-4)[Fuc(a1-3)]GlcNAc(b1-3)Gal(b1-4)[Fuc(a1-3)]GlcNAc
Procedure, shortened: as §1

[25] = biological target: Neu5Ac(a2-6)Gal(b1-4)GlcNAc6S
Procedure, shortened: as §1

Neu5Ac(a2-6)GalNAc = biological target: Neu5Ac(a2-6)GalNAc
Procedure, shortened: as §1

[26] = biological target: Neu5Ac(a2-6)GalNAc(b1-4)GlcNAc
Procedure, shortened: as §1

Neu5Ac(a2-8)Neu5Ac = biological target: Neu5Ac(a2-8)Neu5Ac
Procedure, shortened: as §1

[27] = biological target: Neu5Ac(a2-8)Neu5Ac(a2-3)Gal(b1-4)Glc
Procedure, shortened: as §1

[28] = biological target: Neu5Ac(a2-8)Neu5Ac(a2-3)[GalNAc(b1-4)]Gal(b1-4)Glc
Procedure, shortened: as §1

[29] = biological target: Neu5Ac(a2-8)Neu5Ac(a2-8)Neu5Ac
Procedure, shortened: as §1

[30] = biological target: Neu5Ac(a2-8)Neu5Ac(a2-8)Neu5Ac(a2-3)Gal(b1-4)Glc
Procedure, shortened: as §1

[31] = biological target: Neu5Ac(a2-8)Neu5Ac(a2-8)Neu5Ac(a2-3)[GalNAc(b1-4)]Gal(b1-4)Glc
Procedure, shortened: as §1

[32] = biological target: Neu5Ac(a2-8)Neu5Ac(a2-8)Neu5Ac(a2-8)Neu5Ac(a2-3)[GalNAc(b1-4)]Gal(b1-4)Glc
Procedure, shortened: as §1

Neu5Ac(b1-6)GalNAc = biological target: Neu5Ac(b1-6)GalNAc
Procedure, shortened: as §1

[33] = biological target: Neu5Ac(b2-6)Gal(b1-4)GlcNAc
Procedure, shortened: as §1

Neu5Ac(b2-6)GalNAc = biological target: Neu5Ac(b2-6)GalNAc
Procedure, shortened: as §1

[34] = biological target: Neu5Ac9Ac(a2-6)Gal(b1-4)GlcNAc
Procedure, shortened: as §1

[35] = biological target: Neu5Gc(a2-3)Gal(b1-3)GlcNAc
Procedure, shortened: as §1

[36] = biological target: Neu5Gc(a2-3)Gal(b1-3)[Fuc(a1-4)]GlcNAc
Procedure, shortened: as §1

Neu5Gc(a2-3)Gal(b1-4)Glc = biological target: Neu5Gc(a2-3)Gal(b1-4)Glc
Procedure, shortened: as §1

[37] = biological target: Neu5Gc(a2-3)Gal(b1-4)GlcNAc
Procedure, shortened: as §1

[38] = biological target: Neu5Gc(a2-3)Gal(b1-4)[Fuc(a1-3)]GlcNAc
Procedure, shortened: as §1

[39] = biological target: Neu5Gc(a2-6)Gal(b1-4)GlcNAc
Procedure, shortened: as §1

Neu5Gc(a2-6)GalNAc = biological target: Neu5Gc(a2-6)GalNAc
Procedure, shortened: as §1

[40] = biological target: Neu5Gc(b2-6)Gal(b1-4)GlcNAc
Procedure, shortened: as §1

B1: CD83 (Homo sapiens) (protein)
chain: MSRGLQLLLLSCAYSLAPATPEVKVACSEDVDLPCTAPWDPQVPYTVSWVKLLEGGEERMETPQEDHLRGQHYHQKGQNGSFDAPNERPYSLKIRNTTSCNSGTYRCTLQDPDGQRNLSGKVILRVTGCPAQRKEETFKKYRAETSEQKLISEEDLSRGSDDDDKAEPRGP
glycan array binding signal (z-score) [1]: -0.14 | glycan array binding signal (z-score) [2]: -0.237 | glycan array binding signal (z-score) [3]: 0.045 | glycan array binding signal (z-score) [4]: -0.289 | glycan array binding signal (z-score) [5]: -0.365 | glycan array binding signal (z-score) [6]: 0.381 | glycan array binding signal (z-score) [7]: -0.243 | glycan array binding signal (z-score) [8]: -0.12 | glycan array binding signal (z-score) [9]: -0.229 | glycan array binding signal (z-score) [10]: -0.118 | glycan array binding signal (z-score) [11]: -0.131 | glycan array binding signal (z-score) (Neu5Ac(a2-3)GalNAc): -0.207 | glycan array binding signal (z-score) [12]: -0.291 | glycan array binding signal (z-score) [13]: -0.08 | glycan array binding signal (z-score) [14]: -0.051 | glycan array binding signal (z-score) [15]: 0.015 | glycan array binding signal (z-score) (Neu5Ac(a2-6)Gal): -0.277 | glycan array binding signal (z-score) (Neu5Ac(a2-6)Gal(b1-4)Glc): -0.208 | glycan array binding signal (z-score) [16]: -0.02 | glycan array binding signal (z-score) [17]: -0.14 | glycan array binding signal (z-score) [18]: -0.279 | glycan array binding signal (z-score) [19]: -0.155 | glycan array binding signal (z-score) [20]: -0.274 | glycan array binding signal (z-score) [21]: -0.15 | glycan array binding signal (z-score) [22]: -0.283 | glycan array binding signal (z-score) [23]: -0.298 | glycan array binding signal (z-score) [24]: 0.014 | glycan array binding signal (z-score) [25]: -0.123 | glycan array binding signal (z-score) (Neu5Ac(a2-6)GalNAc): -0.209 | glycan array binding signal (z-score) [26]: -0.217 | glycan array binding signal (z-score) (Neu5Ac(a2-8)Neu5Ac): 0.194 | glycan array binding signal (z-score) [27]: 1.41 | glycan array binding signal (z-score) [28]: 0.494 | glycan array binding signal (z-score) [29]: 2.22 | glycan array binding signal (z-score) [30]: 3.7 | glycan array binding signal (z-score) [31]: 2.88 | glycan array binding signal (z-score) [32]: 0.341 | glycan array binding signal (z-score) (Neu5Ac(b1-6)GalNAc): -0.268 | glycan array binding signal (z-score) [33]: -0.351 | glycan array binding signal (z-score) (Neu5Ac(b2-6)GalNAc): -0.317 | glycan array binding signal (z-score) [34]: 0.02 | glycan array binding signal (z-score) [35]: 0.93 | glycan array binding signal (z-score) [36]: -0.042 | glycan array binding signal (z-score) (Neu5Gc(a2-3)Gal(b1-4)Glc): 1.04 | glycan array binding signal (z-score) [37]: 0.791 | glycan array binding signal (z-score) [38]: -0.098 | glycan array binding signal (z-score) [39]: 0.595 | glycan array binding signal (z-score) (Neu5Gc(a2-6)GalNAc): 0.473 | glycan array binding signal (z-score) [40]: -0.214
